# Laboratory results taken from the supplement of paper PMC8728848.
# This is one part of the list.
# What was measured:
# Experiment in all cases: glycan array binding signal (z-score within array); higher = stronger binding
# Details in all cases: glycan notation: IUPAC condensed, linker removed
# [1] = biological target: Gal(b1-4)GlcNAc(b1-3)Gal(b1-3)GlcNAc
# In short: (§1)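 The Consortium for Functional Glycomics database supplied 3228 glycan arrays, of which those lacking an available protein sequence were dropped. The binding signal, a within-array Z-score, was averaged across arrays of the same protein sequence and across linkers. Negative scores can be read as non-binding.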
# [2] = biological target: Gal(b1-4)GlcNAc(b1-3)Gal(b1-4)Glc
# In short: as §1
# [3] = biological target: Gal(b1-4)GlcNAc(b1-3)Gal(b1-4)GlcNAc
# In short: as §1
# [4] = biological target: Gal(b1-4)GlcNAc(b1-3)Gal(b1-4)GlcNAc(b1-2)Man(a1-3)[Gal(b1-4)GlcNAc(b1-3)Gal(b1-4)GlcNAc(b1-2)Man(a1-6)]Man(b1-4)GlcNAc(b1-4)GlcNAc
# In short: as §1
# [5] = biological target: Gal(b1-4)GlcNAc(b1-3)Gal(b1-4)GlcNAc(b1-2)Man(a1-3)[Gal(b1-4)GlcNAc(b1-3)Gal(b1-4)GlcNAc(b1-2)Man(a1-6)]Man(b1-4)GlcNAc(b1-4)[Fuc(a1-6)]GlcNAc
# In short: as §1
# [6] = biological target: Gal(b1-4)GlcNAc(b1-3)Gal(b1-4)GlcNAc(b1-2)[Gal(b1-4)GlcNAc(b1-3)Gal(b1-4)GlcNAc(b1-6)]Man(a1-6)[Gal(b1-4)GlcNAc(b1-3)Gal(b1-4)GlcNAc(b1-2)Man(a1-3)]Man(b1-4)GlcNAc(b1-4)GlcNAc
# In short: as §1
# [7] = biological target: Gal(b1-4)GlcNAc(b1-3)Gal(b1-4)GlcNAc(b1-2)[Gal(b1-4)GlcNAc(b1-3)Gal(b1-4)GlcNAc(b1-6)]Man(a1-6)[Gal(b1-4)GlcNAc(b1-3)Gal(b1-4)GlcNAc(b1-2)Man(a1-3)]Man(b1-4)GlcNAc(b1-4)[Fuc(a1-6)]GlcNAc
# In short: as §1
# [8] = biological target: Gal(b1-4)GlcNAc(b1-3)Gal(b1-4)GlcNAc(b1-3)Gal(b1-4)GlcNAc
# In short: as §1
# [9] = biological target: Gal(b1-4)GlcNAc(b1-3)Gal(b1-4)GlcNAc(b1-3)Gal(b1-4)GlcNAc(b1-2)Man(a1-3)[Gal(b1-4)GlcNAc(b1-3)Gal(b1-4)GlcNAc(b1-3)Gal(b1-4)GlcNAc(b1-2)Man(a1-6)]Man(b1-4)GlcNAc(b1-4)GlcNAc
# In short: as §1
# [10] = biological target: Gal(b1-4)GlcNAc(b1-3)Gal(b1-4)GlcNAc(b1-3)Gal(b1-4)GlcNAc(b1-2)Man(a1-3)[Gal(b1-4)GlcNAc(b1-3)Gal(b1-4)GlcNAc(b1-3)Gal(b1-4)GlcNAc(b1-2)Man(a1-6)]Man(b1-4)GlcNAc(b1-4)[Fuc(a1-6)]GlcNAc
# In short: as §1
# [11] = biological target: Gal(b1-4)GlcNAc(b1-3)Gal(b1-4)GlcNAc(b1-3)Gal(b1-4)GlcNAc(b1-2)[Gal(b1-4)GlcNAc(b1-3)Gal(b1-4)GlcNAc(b1-3)Gal(b1-4)GlcNAc(b1-6)]Man(a1-6)[Gal(b1-4)GlcNAc(b1-3)Gal(b1-4)GlcNAc(b1-3)Gal(b1-4)GlcNAc(b1-2)Man(a1-3)]Man(b1-4)GlcNAc(b1-4)[Fuc(a1-6)]GlcNAc
# In short: as §1
# [12] = biological target: Gal(b1-4)GlcNAc(b1-3)Gal(b1-4)GlcNAc(b1-3)Gal(b1-4)GlcNAc(b1-3)Gal(b1-4)GlcNAc(b1-2)Man(a1-3)[Gal(b1-4)GlcNAc(b1-3)Gal(b1-4)GlcNAc(b1-3)Gal(b1-4)GlcNAc(b1-3)Gal(b1-4)GlcNAc(b1-2)Man(a1-6)]Man(b1-4)GlcNAc(b1-4)GlcNAc
# In short: as §1
# [13] = biological target: Gal(b1-4)GlcNAc(b1-3)Gal(b1-4)GlcNAc(b1-3)Gal(b1-4)GlcNAc(b1-3)Gal(b1-4)GlcNAc(b1-2)Man(a1-3)[Gal(b1-4)GlcNAc(b1-3)Gal(b1-4)GlcNAc(b1-3)Gal(b1-4)GlcNAc(b1-3)Gal(b1-4)GlcNAc(b1-2)Man(a1-6)]Man(b1-4)GlcNAc(b1-4)[Fuc(a1-6)]GlcNAc
# In short: as §1
# [14] = biological target: Gal(b1-4)GlcNAc(b1-3)Gal(b1-4)GlcNAc(b1-3)Gal(b1-4)GlcNAc(b1-3)Gal(b1-4)GlcNAc(b1-2)[Gal(b1-4)GlcNAc(b1-3)Gal(b1-4)GlcNAc(b1-3)Gal(b1-4)GlcNAc(b1-3)Gal(b1-4)GlcNAc(b1-6)]Man(a1-6)[Gal(b1-4)GlcNAc(b1-3)Gal(b1-4)GlcNAc(b1-3)Gal(b1-4)GlcNAc(b1-3)Gal(b1-4)GlcNAc(b1-2)Man(a1-3)]Man(b1-4)GlcNAc(b1-4)[Fuc(a1-6)]GlcNAc
# In short: as §1
# [15] = biological target: Gal(b1-4)GlcNAc(b1-3)Gal(b1-4)GlcNAc(b1-3)Gal(b1-4)GlcNAc(b1-3)Gal(b1-4)GlcNAc(b1-3)Gal(b1-4)GlcNAc(b1-2)Man(a1-3)[Gal(b1-4)GlcNAc(b1-3)Gal(b1-4)GlcNAc(b1-3)Gal(b1-4)GlcNAc(b1-3)Gal(b1-4)GlcNAc(b1-3)Gal(b1-4)GlcNAc(b1-2)Man(a1-6)]Man(b1-4)GlcNAc(b1-4)GlcNAc
# In short: as §1
# [16] = biological target: Gal(b1-4)GlcNAc(b1-3)Gal(b1-4)GlcNAc(b1-3)Gal(b1-4)GlcNAc(b1-3)Gal(b1-4)GlcNAc(b1-3)Gal(b1-4)GlcNAc(b1-2)Man(a1-3)[Gal(b1-4)GlcNAc(b1-3)Gal(b1-4)GlcNAc(b1-3)Gal(b1-4)GlcNAc(b1-3)Gal(b1-4)GlcNAc(b1-3)Gal(b1-4)GlcNAc(b1-2)Man(a1-6)]Man(b1-4)GlcNAc(b1-4)[Fuc(a1-6)]GlcNAc
# In short: as §1
# [17] = biological target: Gal(b1-4)GlcNAc(b1-3)Gal(b1-4)GlcNAc(b1-3)Gal(b1-4)GlcNAc(b1-3)Gal(b1-4)GlcNAc(b1-3)Gal(b1-4)GlcNAc(b1-2)[Gal(b1-4)GlcNAc(b1-3)Gal(b1-4)GlcNAc(b1-3)Gal(b1-4)GlcNAc(b1-3)Gal(b1-4)GlcNAc(b1-3)Gal(b1-4)GlcNAc(b1-6)]Man(a1-6)[Gal(b1-4)GlcNAc(b1-3)Gal(b1-4)GlcNAc(b1-3)Gal(b1-4)GlcNAc(b1-3)Gal(b1-4)GlcNAc(b1-3)Gal(b1-4)GlcNAc(b1-2)Man(a1-3)]Man(b1-4)GlcNAc(b1-4)[Fuc(a1-6)]GlcNAc
# In short: as §1
# [18] = biological target: Gal(b1-4)GlcNAc(b1-3)Gal(b1-4)GlcNAc(b1-3)Gal(b1-4)GlcNAc(b1-3)Gal(b1-4)GlcNAc(b1-3)Gal(b1-4)GlcNAc(b1-3)Gal(b1-4)GlcNAc(b1-2)Man(a1-3)[Gal(b1-4)GlcNAc(b1-3)Gal(b1-4)GlcNAc(b1-3)Gal(b1-4)GlcNAc(b1-3)Gal(b1-4)GlcNAc(b1-3)Gal(b1-4)GlcNAc(b1-3)Gal(b1-4)GlcNAc(b1-2)Man(a1-6)]Man(b1-4)GlcNAc(b1-4)GlcNAc
# In short: as §1
# [19] = biological target: Gal(b1-4)GlcNAc(b1-3)Gal(b1-4)GlcNAc(b1-3)GalNAc
# In short: as §1
binder,measurement,setting,value
DrGal9 (Danio rerio) (protein) MAFYQQPPYYNPRIPFSGPIQGGLQDGKSIIISGRVLPGANRFHVNLQCGSHSEANVALHFNPRYEDTDYVVNNSYLNRTWGSEERKYESPFAQGQTFTLQILVAQDKYKISTNGRHFMDYKHRIPFTQVDTVAVEGMVEVNSVAFQNPAGFIPPQAGYAPQYAVPPGCGFPAFPSAPNYTIPHKTVMNGGLHPGKNIVINGVVNPNAKSIIFNLCYRSGIAFHYNPRFDENVVVRNTNQMEKWGAEERFGGLPFHKGQPFQVTISCNPQHYNVFVNGKQEHTYKHRYTKLNDIDILEICGDLQLTSVQA,glycan array binding signal (z-score),[1],0.104
same,glycan array binding signal (z-score),[2],0.782
same,glycan array binding signal (z-score),[3],0.486
same,glycan array binding signal (z-score),[4],1.72
same,glycan array binding signal (z-score),[5],5.22
same,glycan array binding signal (z-score),[6],0.373
same,glycan array binding signal (z-score),[7],2.91
same,glycan array binding signal (z-score),[8],0.429
same,glycan array binding signal (z-score),[9],2.59
same,glycan array binding signal (z-score),[10],4.02
same,glycan array binding signal (z-score),[11],4.33
same,glycan array binding signal (z-score),[12],3.48
same,glycan array binding signal (z-score),[13],3.44
same,glycan array binding signal (z-score),[14],3.19
same,glycan array binding signal (z-score),[15],3.05
same,glycan array binding signal (z-score),[16],2.73
same,glycan array binding signal (z-score),[17],3.6
same,glycan array binding signal (z-score),[18],2.17
same,glycan array binding signal (z-score),[19],0.009
